First the molecules themselves.
T1: UNK ZnF1-6 (called full-length) (human, UniProt Q9C0B0 30-357)
T1 sequence: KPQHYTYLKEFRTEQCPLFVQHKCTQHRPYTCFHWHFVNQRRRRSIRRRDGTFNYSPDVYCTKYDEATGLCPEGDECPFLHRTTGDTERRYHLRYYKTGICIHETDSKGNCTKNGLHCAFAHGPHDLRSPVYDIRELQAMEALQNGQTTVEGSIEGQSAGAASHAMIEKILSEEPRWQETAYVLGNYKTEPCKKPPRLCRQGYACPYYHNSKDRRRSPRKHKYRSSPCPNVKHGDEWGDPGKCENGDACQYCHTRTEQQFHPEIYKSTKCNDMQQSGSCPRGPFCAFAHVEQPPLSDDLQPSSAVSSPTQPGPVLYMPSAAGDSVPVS

B1: chr5:132696315:132696416:-|3pUTR|ENSG00000131437|msi1|total|mutant (ssRNA)
RNA: GGGAGUUCUACAGUCCGACGAUCGUUGUACUACUACUCUUCAAUUGUACUGUGCAGGGAAGUUGGGGGAACAGUUCAUACUACCGAGAGUUACAGUUCCGAUGUAUGUGUAAAUCGAUCCGCUAUUUAUCCAACUACUGUAUACAACAGAGGAUUGAGCAUCA
B2: ENSG00000087586:stop:overlap|stop_codon|ENSG00000087586|stop_codon|NA|stop_codon (ssRNA)
RNA: GGGAGUUCUACAGUCCGACGAUCCAGCAAAUUCAUCAAAACCAUCAAAUUGCCAAAACAAAGAAUCAGCUAGCAAACAGUCUUAGGAAUCGUGCAGGGGGAGAAAUCCUUGAGCCAGGGCUGCCAUAUAACCUGACAGGAACACAACAGAGGAUUGAGCAUCA
B3: chr18:2804133:2804242:+|3pUTR|ENSG00000101596|unk|FALSE|unique (ssRNA)
RNA: GGGAGUUCUACAGUCCGACGAUCGGUUAAAGAGAAAUGACUUUUUAGGAACUAGACUUGAACGUAUAAUUAAUAUGUGGAACUAGUUUGCUUUUAUAAUUCAUUGUAUCAAGAAGGAGUCAUGUUUUAAAUCCAAGGCAUUGACAACAGAGGAUUGAGCAUCA
B4: chr10:17237356:17237519:+|3pUTR|ENSG00000026025|msi1_unk|FALSE|overlapping (ssRNA)
RNA: GGGAGUUCUACAGUCCGACGAUCAGAUAGAUUUGGAAUAGGAAUAAGCUCUAGUUCUUAACAACCGACACUCCUACAAGAUUUAGAAAAAAGUUUACAACAUAAUCUAGUUUACAGAAAAAUCUUGUGCUAGAAUACUUUUUACAACAGAGGAUUGAGCAUCA
B5: chr8:103229222:103229323:+|3pUTR|ENSG00000164929|unk|FALSE|unique (ssRNA)
RNA: GGGAGUUCUACAGUCCGACGAUCUAAUUUUCUAGUAUGUCUUGAAACAUGUUCAUCUGGAAGUAUUUUCCUCCAAAGUAAUGUAGCAUGAUUUUUCAAGGAUUGUUAACAUGCCUGGGAUUGGGAAAGAUAGGACUAAAGUUGCAACAGAGGAUUGAGCAUCA
B6: chr1:94529602:94529703:-|3pUTR|ENSG00000117525|msi1|FALSE|unique (ssRNA)
RNA: GGGAGUUCUACAGUCCGACGAUCUGGAAGGAAAUUGGGUGCAUUUCUAGGACUUUUCUAACAUAUGUCUAUAAUAUAGUGUUUAGGUUCUUUUUUUUUUCAGGAAUACAUUUGGAAAUUCAAAACAAUUGGCAAACUUUGUAUCAACAGAGGAUUGAGCAUCA
B7: ENSG00000198589:be:win_1001|CDS|ENSG00000198589|bound_else_gene|NA|bound_elsewhere_windowed (ssRNA)
RNA: GGGAGUUCUACAGUCCGACGAUCUCAACACUAGCGAUACCUUUGACAAAUGUUUCCUGGGCUCAUCAGAAACAGCAGAUGCUAAUAGAGUAUUCUGUGGUCAGAUGACUGCAGUUUACCUUUUCAGUGAAGCUCUAAAUGCAGCAACAGAGGAUUGAGCAUCA
B8: chr5:90513983:90514084:+|3pUTR|ENSG00000113356|unk|FALSE|unique (ssRNA)
RNA: GGGAGUUCUACAGUCCGACGAUCAAAUACACUGAAGAUAAAGGUUAUUUCUUUUUUUAGCUUUGAAUUUGUCAUGACCAUUUUAGUCUUGCAGAUAGCAGGGCAGCCCCUUGGGGCAAGGAUUUACUCUGGGAGGUACCGUUACAACAGAGGAUUGAGCAUCA
B9: chr15:52550141:52550321:-|3pUTR|ENSG00000128989|msi1|total|mutant (ssRNA)
RNA: GGGAGUUCUACAGUCCGACGAUCAGAUGUCACUUCCGUAAAAUACCAAUUCCGUUUUACUUGUGGCUUAUCCCGUCCGAACUCCGCAGACUUUACUGGGACAAGUUUACUGCUCUUGCCGGAGCUCCUCUCACAAGCCGUUGUCAACAGAGGAUUGAGCAUCA
B10: ENSG00000136451:be:win_2001|3pUTR|ENSG00000136451|bound_else_gene|NA|bound_elsewhere_windowed (ssRNA)
RNA: GGGAGUUCUACAGUCCGACGAUCGCUAGUGUAGAAUUGUCUGUGUUUAUUGUUUUUAUGAGUAAAUACAUGCAUUGUCAUAAUAAAAUGCAUUUCAGAGAAUAUGCAUUUUACCUUUGGGAAUAUGUUAAUUUCAGGCAGCAUCAACAGAGGAUUGAGCAUCA
B11: chr2:25738620:25738721:-|3pUTR|ENSG00000143970|unk|FALSE|unique (ssRNA)
RNA: GGGAGUUCUACAGUCCGACGAUCAUACAUAUUAAUGACCUGACAGUUAACAUUCUGUUGUUUAUUAUUGCCUUUCUCCACCUUAGAGAGCCAUAAAUAACUCUCUGGUGAAGUGAUUUGCUAUAAUGGGGGUGAGGAGUGGGGCAACAGAGGAUUGAGCAUCA
B12: chrX:152166439:152166540:-|3pUTR|ENSG00000011677|unk|FALSE|unique (ssRNA)
RNA: GGGAGUUCUACAGUCCGACGAUCCACCACAAGCAGAUUCUCCCUGCCCACCGGCUGAACAAAGCUCCUAAGGGGUGUAUCAUUAGCUGCUGGUUGCCUUUUCAUCCAUCCUUUCCCCGUCCCCUGCUUCCUUGCCAUUGCUGGCAACAGAGGAUUGAGCAUCA
B13: chr14:53038166:53038268:-|3pUTR|ENSG00000100523|unk|total|mutant (ssRNA)
RNA: GGGAGUUCUACAGUCCGACGAUCGAGCUUUUGGCAGAGUCUUCGGGGUUUUCCCGGUAUAAAAUCAUAUCAGCGAAGAGAGCCCGUUUGAUUUCUUUUCCCAGUUGGAUGCCUUUUAUUUAUUUCUCUUGCCUGAUUGCUCUACAACAGAGGAUUGAGCAUCA
B14: chr2:235053981:235054083:+|3pUTR|ENSG00000130147|unk|total|mutant (ssRNA)
RNA: GGGAGUUCUACAGUCCGACGAUCCUCCUCCAUCGAGGGAGAGGCCUGAAGGGACUGCCUACUGCAGCUCGUUGCCAAUCACACCGCUUUCUAUUUGUUAAGUAUAAAUUUAAAUUUAAAAUCACUUUUUUAACGAAUGGGGGGCAACAGAGGAUUGAGCAUCA
B15: ENSG00000165868:stop:overlap|stop_codon|ENSG00000165868|stop_codon|NA|stop_codon (ssRNA)
RNA: GGGAGUUCUACAGUCCGACGAUCAGCAGCCGGCCAAGCAGUUCAUGAGACAAGCUGCCUACCAGGCGGACCCUAUGGAUCUUUAGGAGUAGAUUAUGAGUUCGAAAAACUUCUGUAUAAAAUAUUUGGAGAGGAUUUUAUUGACAACAGAGGAUUGAGCAUCA
B16: chr9:114377124:114377225:-|CDS|ENSG00000106948|msi1|FALSE|unique (ssRNA)
RNA: GGGAGUUCUACAGUCCGACGAUCUCCGUUGAACUCAGCCCGGCAAGGUCCUGGAGCAGUGGGACAGUGAGCCUCGACCACCCUAGUGACAGCCUUGAUUCUACCUGGGAAGGAGAGACCGAUGGCCCCCAGCCCACUGCCCUGCAACAGAGGAUUGAGCAUCA
B17: ENSG00000096070:stop:overlap|stop_codon|ENSG00000096070|stop_codon|NA|stop_codon (ssRNA)
RNA: GGGAGUUCUACAGUCCGACGAUCAGAAGGAUCCUGCACACAUCUUCGCAGAACCAGUCAACUUGAGUGAGGUUUUAUAUGUUUAGGUUCCAGAUUACCUGGAAUUCAUAUCCAAGCCAAUGGAUUUUUCUACUAUGAGGCGGACAACAGAGGAUUGAGCAUCA
B18: chr8:143803364:143803465:-|CDS|ENSG00000180900|msi1|FALSE|unique (ssRNA)
RNA: GGGAGUUCUACAGUCCGACGAUCACCCUCACCGUGCUGGUCUGUGACGGCUUUGAGGCCAGCACCGACGCAGCCCUGGAGGUUAGCGAUCCCGCCCCGGGGACCGGGCCUCCCUCUGGCCCAGCCCAAGGUGUUGUGAGCCGCCAACAGAGGAUUGAGCAUCA
B19: chr7:7607225:7607326:+|3pUTR|ENSG00000164654|msi1|FALSE|bound_elsewhere (ssRNA)
RNA: GGGAGUUCUACAGUCCGACGAUCUUUGAGUGAUUUUGAUAUGCUUCACAGAGACAAAUGCUGCCAAAAUAAACAUCGAAGUAUAGACAUGAGUUCUGUUCAGCAGGUUGAAAAGUCUGAUUUAGAAAAACUUUCUAAGUUUUGCAACAGAGGAUUGAGCAUCA
B20: chr6:13639604:13639705:-|CDS|ENSG00000010017|unk|FALSE|unique (ssRNA)
RNA: GGGAGUUCUACAGUCCGACGAUCGAUAGUGAAGUACGAUGUUUGGGAGGCCGAAGUCCAAAGUCUCAAGACAGUUAUCCUGUUAGUCCUCGACCUUUUAGUAGUCCAAGUAUGAGCCCCAGCCAUGGAAUGAAUAUCCACAAUCAACAGAGGAUUGAGCAUCA
B21: chr2:53865134:53865235:-|3pUTR|ENSG00000068878|unk|total|mutant (ssRNA)
RNA: GGGAGUUCUACAGUCCGACGAUCGUCCUGUCAUUUCAUUCAUCUCAAAUUAUUUUGAAUUCUUCCCAAAUGGCUGCUGGAUUCCGGUGGUAACCGGGGCUGUGGGCCAUAAAUCUGAAGCCUUGAGAACCUUGGGUCUGGAGACAACAGAGGAUUGAGCAUCA
B22: ENSG00000130816:stop:overlap|stop_codon|ENSG00000130816|stop_codon|NA|stop_codon (ssRNA)
RNA: GGGAGUUCUACAGUCCGACGAUCUGGCCAAAGCCCGAGAGAGUGCCUCAGCUAAAAUAAAGGAGGAGGAAGCUGCUAAGGACUAGUUCUGCCCUCCCGUCACCCCUGUUUCUGGCACCAGGAAUCCCCAACAUGCACUGAUGUCAACAGAGGAUUGAGCAUCA

This is one part of the list.

This experiment concerns the target T1, UNK ZnF1-6 (called full-length). Briefly: nsRBNS (natural sequence RNA bind-n-seq); RBNS binding buffer (assumed for nsRBNS): 25 mM Tris pH 7.5, 150 mM KCl, 3 mM MgCl2, 0.01% Triton X-100, 500 ug/ml BSA, 20 U/ml SUPERase-In, 4 C; UNK is unkempt and MSI1 is Musashi-1; names of the RNAs are library labels; protein concentration not given here; high values mean tight binding.
With B1, the binding signal was determined as 0.813 enrichment R. As for B2, the figure is 0.534 enrichment R; as for B3, 0.789 enrichment R; as for B4, 7.53 enrichment R.

As to B5, the binding signal amounted to 0.574 enrichment R. B6 yielded a binding signal of 10 enrichment R. Regarding B7, the binding signal was determined as 0.527 enrichment R. As for B8, the binding signal stood at 0.761 enrichment R. With B9 the figure was 0.541 enrichment R. On to B10, for which the binding signal worked out at 0.983 enrichment R. Turning to B11, the binding signal came out at 0.823 enrichment R.

Turning to B12, the binding signal stood at 0.93 enrichment R. With B13 the figure was 0.454 enrichment R; with B14, 0.776 enrichment R. B15 came in with a binding signal of 0.728 enrichment R.

In turn, B16 returned a binding signal of 1.01 enrichment R. With B17 the figure was 0.627 enrichment R. Take B18: the binding signal is 0.519 enrichment R. As to B19, the binding signal was 0.411 enrichment R.

In turn, B20 yielded a binding signal of 1.17 enrichment R.

For B21, the binding signal came out at 0.655 enrichment R. As for B22, the figure is 0.962 enrichment R.

These data come from paper PMC12136788.
